Results: PubChem BioAssay AID493208 (National Center for Advancing Translational Sciences (NCATS), 2011)
About 340 (0.77%) of roughly 44,000 compounds were called active. Another 5% or so got no clear call; they are omitted. Calls follow the shape of the dose curve; as a rule, active = well fitted inhibition curve with a large enough effect; inconclusive = small, poorly fitted or top-dose-only effect; inactive = flat fitted curve, though single readings scatter. The list shows a part of the results.

Experiment: Acumen qHTS Assay for Inhibitors of the mTORC1 Signaling Pathway in MEF (Tsc2-/-, p53-/-) Cells: Sytravon;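 also: plate controls were DMSO for no effect and rapamycin for full effect; nearly all actives have a fitted effect of over 50% in size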
Conditions: phospho-rpS6 immunofluorescence/PI, 24 h; series mostly up to 38.3 µM; activity change, negative = inhibition: at the top concentration
Procedure, shortened: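 Immunofluorescence of rpS6 phosphorylation in Tsc2-/-, p53-/- MEFs after 24 h compound exposure, normalized to propidium iodide signal. Activity is expressed as % positive cells, thresholded with 7.5 nM rapamycin.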

Row | SMILES | activity change, negative = inhibition
1 | O=C(Cn1nc(-c2ccc(Cl)cc2)ccc1=O)NCc1ccccc1Cl | inactive: 5.97%
2 | CCCNC(=O)C1CCC(Cn2c(=O)c3sccc3n(CC(=O)N3CCC(C)CC3)c2=O)CC1 (centres undefined) | inactive: 0.0967%
3 | Cc1cccc(OCC(=O)N(Cc2sccc2C)C2CCS(=O)(=O)C2)c1 (centres undefined) | inactive: -0.77%
4 | COc1ccc(N2CCN(C(=O)c3ccc(-c4nc(COc5ccccc5)c(C)o4)cc3)CC2)cc1 | inactive: -6.45%
5 | COc1ccc(N2CCN(C(=O)c3nc(SC)ncc3Cl)CC2)cc1 | inactive: -6.13%
6 | COc1ccc(C(C)C)cc1S(=O)(=O)NCCc1c(C)[nH]c2ccc(C)cc12 | inactive: -29.9%
7 | CC(C)(C)OC(=O)N1CCC(c2c(C(=O)N3CCc4ccccc4C3)cnn2-c2ccc(F)cc2)CC1 | inactive: 2.18%
8 | CC1=C(c2ccc(C)c(C)c2)S(=O)(=O)N=C1N1CCC(C(=O)NCc2ccc(C)o2)CC1 | inactive: -1.16%
9 | Cc1ccccc1OCCn1c(CCNC(=O)C(C)(C)C)nc2ccccc21 | inactive: -0.815%
10 | CC(NC(=O)CCCn1c(=O)c2cccn2c2cccnc21)c1ccccc1 (centres undefined) | inactive: -0.111%
11 | CCOc1ccc(-c2nc(C#N)c(NCCCOC)o2)cc1 | inactive: -28.2%
12 | CCc1ccc(CNC(=O)c2ccc(-c3nc(CS(=O)(=O)c4ccccc4)c(C)o3)cc2)cc1 | inactive: -0.754%
13 | Cc1coc2c(C)c3oc(=O)c(CCC(=O)NCCc4ccc(Cl)cc4)c(C)c3cc12 | inactive: -4.01%
14 | CCN(CCCNC(=O)c1cc2c(=O)n(CC)c3ccccc3c2s1)c1ccccc1 | inactive: -1.06%
15 | COc1ccc(OC)c(CNC(=O)Cc2ccc(NC(=O)N3CCCCc4ccccc43)cc2)c1 | inactive: -9.86%
16 | COCCCNC(=O)c1c(NC(=O)Cc2coc3cc(C)cc(C)c23)sc2c1CCCC2 | inactive: -13.8%
17 | CCc1ccc(CNC(=O)CSc2cc(=O)n(C)c3ccc(Cl)cc23)cc1 | inactive: 4.33%
18 | CC(NC(=O)CCSCc1ccccc1F)c1ccccc1 (centres undefined) | inactive: 14.3%
19 | COc1ccc(-c2cc(-c3ccccc3)nc(SCC(=O)CC(=O)OC(C)C)c2C#N)cc1 | inactive: -6.96%
20 | O=C(c1ccc2c(c1)N(Cc1ccccc1F)C(=O)c1ccccc1S2(=O)=O)N1CCCC1 | inactive: -9.74%

Row | SMILES | activity change, negative = inhibition
21 | Cc1cc(F)ccc1NCc1ccccc1-c1nnc(-c2ccccc2Cl)o1 | inactive: -9.47%
22 | O=C(NCC(c1cccnc1)N1CCc2ccccc21)c1cccc(C(F)(F)F)c1 (centres undefined) | inactive: -8.51%
23 | COc1ccc(C(=O)N(Cc2cc(OC)c(OC)c(OC)c2)CC2CCCO2)cc1 (centres undefined) | inactive: -0.847%
24 | CCCNC(=O)CSc1nc2nc(C)c(Cc3ccccc3Cl)c(C)n2n1 | inactive: 5.21%
25 | Cc1ccc(-c2noc(-c3nnn(CC(=O)Nc4cc(C)cc(C)c4)c3N)n2)cc1 | inactive: -1.83%
26 | COc1ccc(CCCc2nnc(SCC(=O)Nc3ccc(C)cc3C)o2)cc1 | inactive: 2.14%
27 | CCN(CC)S(=O)(=O)c1cc(-c2onc(C)c2C)ccc1OC | inactive: 2.49%
28 | O=C(NCc1cccc(Cl)c1)C1CCN(C(=O)c2sccc2-n2cccc2)CC1 | inactive: 0.425%
29 | CCc1ccc(C(=O)c2cn(CC(=O)Nc3ccc(OC)cc3OC)c3ccc(CC)cc3c2=O)cc1 | inactive: 2.44%
30 | COc1cccc(C(=O)Nc2cccc(C(=O)OCc3cc(=O)n4nc(C(C)C)sc4n3)c2)c1 | inactive: 16.3%
31 | CC(=O)N1CCC(N(C(=O)Nc2c(F)cccc2F)C(C)C)CC1 | inactive: 2.81%
32 | Cc1ccc(N(C)C(=O)c2cnc(N3CCOCC3)c3ccccc23)cc1C | inactive: -2.14%
33 | CCOc1ccc(-c2nc(SCC(=O)NCCOC)c(-c3ccc(OC)c(OC)c3)[nH]2)cc1 | inactive: -9.34%
34 | CSc1nc2sc3c(c2c(=O)n1-c1ccc(F)c(Cl)c1)CCN(C(C)=O)C3 | inactive: 5.77%
35 | Cc1cc(C)cc(NC(=O)CSc2nc(-c3cccc(Cl)c3)nc3c2Cc2c(CO)cnc(C)c2O3)c1 | inactive: -4.82%
36 | CCOC(=O)NC1(C(F)(F)F)NC(=O)N(c2ccc(C)c(C)c2)C1=O (centres undefined) | inactive: 3%
37 | COc1ccc(S(=O)(=O)NCCc2csc(-c3ccc(F)cc3)n2)cc1 | inactive: -15.6%
38 | Cc1cc(C)cc(OCC(=O)Nc2ccc(S(=O)(=O)Nc3onc(C)c3C)cc2)c1 | inactive: 1.19%
39 | COc1ccc(-n2nc(C(=O)Nc3cccc(C(F)(F)F)c3)c3c4ccccc4n(C)c3c2=O)cc1 | inactive: -0.109%
40 | Cc1nn(CC(=O)NCc2ccccc2Cl)c(=O)c2nn(-c3ccccc3)c(C)c12 | inactive: -1.2%

Row | SMILES | activity change, negative = inhibition
41 | Cc1ccccc1NC(=O)CSC1=Nc2ccccc2C2=NC(CCC(=O)NCc3ccccc3)C(=O)N12 (centres undefined) | inactive: 8.54%
42 | Cc1nc(CC(=O)Nc2ccc(N(C)C)cc2)cs1 | inactive: -1.08%
43 | Cc1cc(C)cc(N2C(=O)N(CC(=O)c3ccc(Br)cc3)c3ccccc3S2(=O)=O)c1 | inactive: 4.84%
44 | O=S(=O)(NCc1cccc(Br)c1)c1ccc(-c2cc(C(F)(F)F)on2)s1 | inactive: 0%
45 | COc1ccccc1CNC(=O)CN1C(=O)COc2ccc(S(=O)(=O)N3CCCCC3)cc21 | inactive: 0.835%
46 | CCN(CC)C(=O)c1sc2c(c1C)c(=O)n(-c1ccc(Cl)c(Cl)c1)c(=O)n2Cc1cc(=O)n2c(C)cccc2n1 | inactive: -2.92%
47 | COC(=O)CN1C(=O)CSc2ccc(S(=O)(=O)N3CCOCC3)cc21 | inactive: 1.68%
48 | COC(=O)c1sccc1S(=O)(=O)N(CC(=O)NCc1ccc(C)cc1)c1ccc(Cl)cc1 | inactive: 3.16%
49 | COc1ccc(C(=O)Nc2ccc3nc(SCC(=O)N4CCCc5ccccc54)sc3c2)cc1 | inactive: 0%
50 | CCCCn1cc(S(=O)(=O)c2ccc(OC)cc2)c(=O)c2cc(F)c(N3CCCC3)cc21 | inactive: 5.62%
51 | Cc1ccc(-c2nc(C)c(CCNS(=O)(=O)c3ccccc3F)s2)cc1 | inactive: -1.8%
52 | Cc1cccc(NC(=O)N2CCC(CN3CCc4ccccc4C3)CC2)c1C | inactive: -13.6%
53 | CCOc1ccc(NC(=O)Cn2cc(C(=O)c3ccc(C)c(C)c3)c(=O)c3cc4c(cc32)OCCO4)cc1 | inactive: -15.9%
54 | CCOC(=O)c1cccc(NC(=O)CN2C(=O)CC(C)(C)Sc3ccccc32)c1 | inactive: -2.58%
55 | CCN(C(=O)c1oc2ccc(S(=O)(=O)N3CCCCCC3)cc2c1C)c1ccccc1 | inactive: -14.9%
56 | O=C1C(=O)N(C2CCN(S(=O)(=O)c3ccc(F)cc3)CC2)CCN1Cc1ccccc1 | inactive: 0%
57 | Cc1cccc(C)c1OCc1nc2c3cnn(-c4cccc(F)c4)c3ncn2n1 | inactive: -1.1%
58 | Cc1ccc(-n2ncc(C(=O)NCCN3CCc4ccccc4C3)c2C2CCN(C(=O)OC(C)(C)C)CC2)cc1 | inactive: 0%
59 | COc1ccc(CCNC(=O)CCCn2c(=O)c3ccccc3n(Cc3ccccc3C)c2=O)cc1OC | inactive: -15.6%
